Hit rate of the full screen: of about 420,000 compounds, about 64,000 (15%) were called active. The shares of active, inactive and inconclusive entries below differ from those in the screen. Calls follow the shape of the dose curve; as a rule, active = well fitted inhibition curve with a large enough effect; inconclusive = small, poorly fitted or top-dose-only effect; inactive = flat fitted curve, though single readings scatter. Potencies of inconclusive entries are left out as doubtful fits.
Assay: qHTS for Inhibitors of human tyrosyl-DNA phosphodiesterase 1 (TDP1): qHTS in cells in absence of CPT; also: nearly all actives have a fitted effect of over 55% in size
Settings: DT40 Tdp1-/- hTDP1 cells, no CPT, ATP luminescence, 48 h; activity change, negative = growth inhibition: at 46.2 µM (top of the series) unless noted
Procedure, shortened: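 Cells were dispensed at 400 per well, compounds added by pin tool, plates incubated ≥48 hr at 37 °C, then CellTiter-Glo added for 30 min at room temperature before luminescence reading. Line: DT40 Tdp1-/- complemented with hTDP1; camptothecin omitted.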
% is scaled to controls: 0 for no effect and ±100 for the full control effect; potency is read from the fitted curve at half-maximal effect; tags tell the direction and shape of the fitted curve.

Compound | Potency | activity change, negative = growth inhibition
COc1cccc2c1cc1c(=O)n(CC(=O)N3CCCCCC3)nc(C)n12 | inconclusive [inhibitor, single point] | 
CCCCc1ccc(NC(=O)CN2NS(=O)(=O)c3ccccc3C2=O)cc1 | inconclusive [inhibitor, single point] | 
CCOc1ccc(NS(=O)(=O)c2ccc3[nH]c(=O)[nH]c3c2)cc1 | inconclusive [inhibitor, single point] | 
C=CCn1c(-c2ccc(OC)cc2)csc1=Nc1c(C)n(C)n(-c2ccccc2)c1=O | active: 20.6 µM | 
Cc1ccccc1OCc1nnc(SCc2nc3ccccc3c(=O)[nH]2)n1C |  | inactive: -2.11%
COC(=O)[C@@H](NC(=O)NC1CCCCC1C)C(C)C (stereo not given in full) |  | inactive: -5.52%
Cc1cccc(C)c1NC(=O)CN(C)CC(=O)N1CC(=O)Nc2ccccc21 |  | inactive: -3.88%
COC(=O)c1ccc(C(=O)OC)c(NC(=O)CN2CCC(C)CC2)c1 | inconclusive [inhibitor, single point] | 
COc1ccc(-c2cc(C(F)(F)F)n3nc(C(=O)Nc4ccc(Cl)cc4C(F)(F)F)cc3n2)cc1OC |  | inactive: -5.55%
CC(=O)N1CCc2cc(NC(=O)C3(C)CCN3Cc3ccc(C(C)C)cc3)ccc21 (stereo not given) | inconclusive [inhibitor, single point] | 
COc1ccc(S(=O)(=O)N2CCC[C@H]2C(=O)NCc2ccc(Cl)cc2)cc1 | inconclusive [inhibitor, single point] | 
Cc1ccc(NC(=O)c2ccc3c(c2)[nH]c(=O)n3C(C)C)cc1 | inconclusive [inhibitor, single point] | 
O=S(=O)(c1cccc2c(I)cccc12)N1CCCNCC1 | active: 8.2 µM | 
OC(c1ccccc1)C(O)C(c1ccccc1)N1CCCCC1 (stereo not given) |  | inactive: -0.764%
COc1ccccc1N1CCN(C(=O)c2ccco2)CC1 |  | inactive: -0.545%
CCOc1ccc(N(CC(=O)Nc2cc(C)cc(C)c2)S(C)(=O)=O)cc1 | inconclusive [inhibitor, single point] | 
Cc1oc(-c2ccccc2)nc1Cn1c(=O)cc(-c2ccccc2)c2c(C)nn(C)c21 | inconclusive [inhibitor, single point] | 
CC(=O)NC(CCS(C)(=O)=O)C(=O)Nc1nccs1 (stereo not given) | inconclusive [inhibitor, single point] | 
COc1ccc(S(=O)(=O)N2CCN(CC(O)COc3ccc(CC#N)cc3)CC2)cc1OC (stereo not given) |  | inactive: -10.4%
CCCCCCn1cc(C(=O)O)c(=O)c2cc(F)c(N3CCN(C(=O)OCC)CC3)cc21 | inconclusive [inhibitor, single point] | 
